The labels stand for the following.
B1: CPEB3 Ribozyme (parent)
chain: UAACAGGGGGCCACAGCAGAAGCGUUCACGUCGCAGCCCCUGUCAGAUUCUGGUGAAUCUGCGAAUUCUGCUGUAUAUCUC

The source gives no read counts; variants with many changes may rest on few reads.

The variants in this data set derive from B1. The experiment in a line: self-cleavage, relative activity (ratio to wild type); higher = more cleavage; in vitro, sequencing. A digest of the protocol:
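Libraries of CPEB3 self-cleaving ribozyme mutants came from rounds of error-prone PCR and carried barcodes, which DNA sequencing matched to variants. In vitro transcription used T7 RNA polymerase at 37°C for 5 hours, with a further 15 min in DNase I before EDTA stopped the reaction; the ribozymes cleaved during both steps. The RNA was reverse transcribed with template switching and sequenced on Illumina. Relative activity is the cleaved/total read fraction of a variant divided by that of the unmutated ribozyme, averaged over three batches with at least 5 reads.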
For A15U U31C A56U A57G A77U, the self-cleavage is 0.06.

On to A15U A28G U41C A77G, for which the self-cleavage was determined as 0.28.

With A15G U26A A45U U51C U60C, the self-cleavage stood at 0.11.

On to A15U A47C A56G U66A A77G, for which the self-cleavage came to 0.09.

With A15G U49C A77U U78C, the self-cleavage was 0.19.

Take A15U A47G A64U U78C: the self-cleavage was found to be 0.12.

As for A15U C29U U54C U80C, the self-cleavage was 0.15.

Take A15G U31C U58C U66G U78C U80C: the self-cleavage came out at 0.07.

For the variant A15U G24A A35U, the self-cleavage worked out at 0.17.

A15G U26A U48C A56C: the self-cleavage was determined as 0.12.

On to A15G G19U G63A A64U U66C, for which the self-cleavage came to 0.13.

For A15G U60G A77U, the self-cleavage was 0.25.

With A15G C17A U41C G63C C79A, the self-cleavage worked out at 0.38.

With A15G U25G A35G U48C U72C U76C, the self-cleavage was 0.09.

As to A15U C40U A57G U67C U78A, the self-cleavage was determined as 0.05.

Consider A15G U31A U80A, for which the self-cleavage came to 0.59.

On to A15U U26A U48C U69A, for which the self-cleavage came out at 0.24.

For the variant A15G G19A G55U A56G U80C, the self-cleavage came out at 0.23.

With A15G G30C C59U U80C, the self-cleavage stood at 0.1.

With A15G U43A A57G C79A, the self-cleavage is 1.01.

On to A15G C38G U72C, for which the self-cleavage came to 0.39.

With A15U C44A A45G, the self-cleavage was 0.22.

Take A15G U25C U43C A45U U51C U69G U76C: the self-cleavage was found to be 0.

Consider A15G U25C U26A, for which the self-cleavage is 0.31.

For A15G U26C U54A U60A, the self-cleavage amounted to 0.23.

As to A15U A18U C40U G46U U54C U74C A77U, the self-cleavage was determined as 0.02.

Regarding A15G U41C C59A U78C, the self-cleavage was found to be 0.34.

Consider A15G U41A G46A, for which the self-cleavage came out at 0.08.

A15G G19C A21G A57G: the self-cleavage stood at 0.18.

On to A15G U31C U78C, for which the self-cleavage was 0.26.

As to A15U A21G U31A A64G, the self-cleavage came to 0.27.

For the variant A15G U25C U67C U74C, the self-cleavage is 0.19.

Consider A15U U25C A28G U54C A64C, for which the self-cleavage worked out at 0.1.

For the variant A15G U26C A35U, the self-cleavage was 0.13.

As to A15U G55A A56U C62U, the self-cleavage came to 0.09.

Consider A15G U41A A45G C81U, for which the self-cleavage stood at 0.04.

For A15U C29A U49C U72C, the self-cleavage worked out at 0.29.

A15U C62U A64G: the self-cleavage turned out to be 0.16.

On to A15U U25C U51C, for which the self-cleavage stood at 0.15.

Consider A15U U26A G63A, for which the self-cleavage is 0.21.

Regarding A15U U26C A57G, the self-cleavage came out at 0.21.

On to A15G U26A U72C, for which the self-cleavage came out at 1.11.

For the variant A15U U25C A45U A77U U78C, the self-cleavage came to 0.1.

On to A15G U25C A28U, for which the self-cleavage was found to be 0.15.

Consider A15G U72A C81A, for which the self-cleavage was found to be 0.7.

For A15G U25C A47G A56G C62U, the self-cleavage is 0.2.

As to A15G G52U U58G A75U U78C, the self-cleavage turned out to be 0.31.

Take A15U A18G G24A A28G: the self-cleavage was 0.2.

A15G U51A A57U: the self-cleavage came to 0.47.

As to A15U A21G U48A U51G U66A U80A, the self-cleavage is 0.06.

A15U U25A C38U A64C U72A: the self-cleavage was 0.12.

Consider A15U C44U U60A U74C A75G, for which the self-cleavage came out at 0.11.

As for A15G U41C U51C A64G, the self-cleavage came to 0.18.

Consider A15U U25C A35U U54C U74A, for which the self-cleavage was determined as 0.18.

For A15G G33A U66C, the self-cleavage was found to be 0.74.

For the variant A15G U49C A64G, the self-cleavage amounted to 0.2.

As to A15U A47G A75U U78C, the self-cleavage amounted to 0.98.

Turning to A15G U31A A56G A64G, the self-cleavage turned out to be 0.48.

Regarding A15G U31A A47U U72C A75G U76C, the self-cleavage turned out to be 0.21.

With A15U C23G U31G A56G U60C A65G, the self-cleavage turned out to be 0.09.

On to A15U U26C U41G A57U, for which the self-cleavage is 0.13.

Turning to A15G G24A A35U C44U G52A U69C U72A, the self-cleavage was determined as 0.05.

Consider A15U A47G U48C, for which the self-cleavage worked out at 0.24.

In the case of A15G U54C U69C U72G, the self-cleavage was 0.16.

Take A15G G24A A45G U74C: the self-cleavage was 0.13.

In the case of A15G G33A G55A C68A, the self-cleavage was determined as 0.08.

Turning to A15U A18U A35G U41A A56G, the self-cleavage came to 0.31.

Take A15G U54C A56G U78C: the self-cleavage is 0.43.

On to A15U U26C U48C U49C, for which the self-cleavage was determined as 0.12.

A15G U49C A64G A75U U78A: the self-cleavage came out at 0.13.

In the case of A15U A20G U31A U72A A77G, the self-cleavage came out at 0.29.

As for A15U A28U U60C U74C, the self-cleavage is 0.1.

In the case of A15G G42A U43C U69C, the self-cleavage was 0.17.

With A15U U26C U67C, the self-cleavage turned out to be 0.19.

As to A15U A18G U43C U69C, the self-cleavage amounted to 0.41.

As for A15U A20G C29U A77G, the self-cleavage is 0.43.

With A15U C23A U26A U72A G73A, the self-cleavage amounted to 0.45.

As for A15G C29U A45U A64G, the self-cleavage was 0.09.

Consider A15G U48C U60C U76C, for which the self-cleavage came to 0.21.

For A15U A28G C71A U74A A75U, the self-cleavage amounted to 0.11.

On to A15U U26G U51A, for which the self-cleavage stood at 0.17.

A15G G19U U31A U58C U67A U78C: the self-cleavage stood at 0.11.

As for A15U A21G U41C U58C, the self-cleavage is 0.43.

Source of the values: the RNAGym collection of RNA variant scans (doi:10.1093/nar/gkz1192).
